# Laboratory results taken from PMC9810599.
# Protein sequences, listed by entry. Tags and fused reporters are not part of them. Lines headed by an entry give the natural chain unless they say otherwise; changes in a name come on top. Residues count along the entry.
# UniProt P0CS90, residues 24-654: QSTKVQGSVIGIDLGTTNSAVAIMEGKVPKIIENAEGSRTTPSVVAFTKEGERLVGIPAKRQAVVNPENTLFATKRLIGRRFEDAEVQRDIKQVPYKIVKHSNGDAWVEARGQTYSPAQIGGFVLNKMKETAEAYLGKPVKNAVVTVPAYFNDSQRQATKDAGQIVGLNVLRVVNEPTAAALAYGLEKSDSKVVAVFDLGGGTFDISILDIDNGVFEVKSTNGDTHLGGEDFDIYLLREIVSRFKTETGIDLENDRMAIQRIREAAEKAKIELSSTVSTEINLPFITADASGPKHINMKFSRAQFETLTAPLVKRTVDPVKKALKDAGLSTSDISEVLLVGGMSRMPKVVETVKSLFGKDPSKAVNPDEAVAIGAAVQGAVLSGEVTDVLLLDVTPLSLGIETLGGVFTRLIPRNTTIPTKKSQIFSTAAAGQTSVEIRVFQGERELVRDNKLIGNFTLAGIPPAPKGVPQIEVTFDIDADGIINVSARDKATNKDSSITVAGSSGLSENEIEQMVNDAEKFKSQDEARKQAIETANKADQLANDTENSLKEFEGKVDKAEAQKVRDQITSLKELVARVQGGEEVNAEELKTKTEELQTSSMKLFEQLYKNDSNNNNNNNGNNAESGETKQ
# UniProt P07251, residues 36-545: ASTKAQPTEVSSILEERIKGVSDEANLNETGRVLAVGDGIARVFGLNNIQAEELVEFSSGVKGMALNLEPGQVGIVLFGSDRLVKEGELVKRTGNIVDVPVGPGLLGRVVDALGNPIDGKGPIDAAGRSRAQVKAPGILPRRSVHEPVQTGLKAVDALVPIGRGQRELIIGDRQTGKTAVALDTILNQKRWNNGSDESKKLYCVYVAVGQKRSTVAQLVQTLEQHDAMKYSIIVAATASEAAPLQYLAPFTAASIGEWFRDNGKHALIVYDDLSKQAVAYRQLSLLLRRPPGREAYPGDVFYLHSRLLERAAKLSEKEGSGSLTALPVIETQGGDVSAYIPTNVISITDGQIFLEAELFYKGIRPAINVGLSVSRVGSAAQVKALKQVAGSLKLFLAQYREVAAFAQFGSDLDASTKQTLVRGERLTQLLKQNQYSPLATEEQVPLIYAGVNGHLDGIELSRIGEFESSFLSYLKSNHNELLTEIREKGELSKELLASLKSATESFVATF
# UniProt P00830, residues 34-511: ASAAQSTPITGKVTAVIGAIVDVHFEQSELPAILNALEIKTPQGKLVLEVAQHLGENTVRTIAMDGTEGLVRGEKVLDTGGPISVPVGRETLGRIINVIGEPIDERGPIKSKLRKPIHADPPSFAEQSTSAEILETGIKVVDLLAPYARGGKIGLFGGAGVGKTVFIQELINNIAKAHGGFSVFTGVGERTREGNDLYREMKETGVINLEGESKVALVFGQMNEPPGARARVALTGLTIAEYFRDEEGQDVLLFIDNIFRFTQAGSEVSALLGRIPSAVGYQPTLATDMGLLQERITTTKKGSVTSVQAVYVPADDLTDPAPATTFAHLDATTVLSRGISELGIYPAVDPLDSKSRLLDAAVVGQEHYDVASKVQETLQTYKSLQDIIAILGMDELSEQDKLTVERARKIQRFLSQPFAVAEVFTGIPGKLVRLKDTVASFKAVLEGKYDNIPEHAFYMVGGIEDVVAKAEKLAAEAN
# Results are given in words; binding and its absence hold for the method and conditions named. Binding seen in cells or lysates may run through a third protein. Some entries that bind do so weakly or less than the wild type. For some assays here: Where a sequence is shown, tags or fusion partners need not be part of it.
# Legend:
# [1] = target: mitochondrial Hsp70 (mtHsp70), wild type (S. cerevisiae (endogenous in yeast mitochondria)) (UniProt P0CS90); assay: pull-down; mtHsp70 with its bound proteins captured on Mge1His-coated Ni-NTA agarose from digitonin lysates of mitochondria (wild type, ρ0, atp3∆, atp4∆, atp5∆, atp7∆, atp14∆, ina17∆, ina22∆, ssc1-62, cells overexpressing Atp5 or Atp5^G183A); SDS-PAGE and immunodetection
# [2] = target: T1, His-tagged Ina22 (Ina22His) (S. cerevisiae) (UniProt P40576); assay: pull-down; Ina17His or Ina22His purified on Ni-NTA agarose from digitonin-lysed mitochondria; also with pre-incubation of the lysate with ATP and with elution of bound proteins by 20 mM ATP; SDS-PAGE and immunodetection
# T1 sequence: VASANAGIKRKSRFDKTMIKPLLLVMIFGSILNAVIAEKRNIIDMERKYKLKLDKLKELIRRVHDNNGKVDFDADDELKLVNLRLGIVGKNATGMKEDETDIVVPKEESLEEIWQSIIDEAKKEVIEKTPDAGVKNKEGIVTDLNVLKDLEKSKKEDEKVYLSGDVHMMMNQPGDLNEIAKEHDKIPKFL
# [3] = target: T2, His-tagged Ina17 (Ina17His) (S. cerevisiae) (UniProt Q02888); assay: as above
# T2 sequence: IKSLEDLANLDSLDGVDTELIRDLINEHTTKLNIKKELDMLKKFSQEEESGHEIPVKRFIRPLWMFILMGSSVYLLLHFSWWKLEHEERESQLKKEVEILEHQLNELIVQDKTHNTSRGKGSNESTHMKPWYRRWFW
# [4] = target: T3, Tim17His (His-tagged Tim17) (S. cerevisiae) (UniProt P39515); assay: pull-down; mitochondria with the His-tagged bait lysed in 1% digitonin (20 mM Tris/HCl pH 7.4, 0.1 mM EDTA, 50 mM NaCl, 10% glycerol, 10 mM imidazole), bound to Ni-NTA agarose 1 h at 4 °C, washed with 40 mM imidazole, eluted with 250 mM imidazole; SDS-PAGE and immunodetection; WT mitochondria as control
# T3 sequence: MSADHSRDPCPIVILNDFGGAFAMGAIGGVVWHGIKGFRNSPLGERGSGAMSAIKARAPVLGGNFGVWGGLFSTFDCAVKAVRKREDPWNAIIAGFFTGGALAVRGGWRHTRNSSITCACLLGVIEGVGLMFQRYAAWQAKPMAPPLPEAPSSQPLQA
# [5] = target: T4, His-tagged Atp12 (Atp12His) (S. cerevisiae) (UniProt P22135); assay: pull-down; Atp11His or Atp12His purified on Ni-NTA agarose from mitochondrial lysates pre-incubated with ATP (20 mM ATP pH 7.5 in lysis buffer); SDS-PAGE and immunodetection
# T4 sequence: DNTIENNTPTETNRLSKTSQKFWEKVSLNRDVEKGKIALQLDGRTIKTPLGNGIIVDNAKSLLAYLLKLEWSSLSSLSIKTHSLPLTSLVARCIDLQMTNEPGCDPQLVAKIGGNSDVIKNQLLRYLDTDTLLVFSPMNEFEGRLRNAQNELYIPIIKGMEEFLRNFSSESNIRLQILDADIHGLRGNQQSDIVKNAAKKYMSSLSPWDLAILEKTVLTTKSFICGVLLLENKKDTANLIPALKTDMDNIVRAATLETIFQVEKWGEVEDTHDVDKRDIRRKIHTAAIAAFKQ
# [6] = target: T4, His-tagged Atp12 (Atp12His) (S. cerevisiae); assay: pull-down; Atp11His or Atp12His purified on Ni-NTA agarose from digitonin-lysed mitochondria without added ATP; also in the ssc1-62 background after shift to non-permissive conditions; SDS-PAGE and immunodetection
# [7] = target: His-tagged mitochondrial Hsp70 (mtHsp70His) (S. cerevisiae) (UniProt P0CS90); assay: pull-down; mtHsp70His purified on Ni-NTA agarose from digitonin-lysed ρ+ and ρ0 mitochondria, in the absence of ATP; SDS-PAGE and immunodetection
# [8] = target: T5, His-tagged Atp11 (Atp11His) (S. cerevisiae) (UniProt P32453); assay: condition: only preincubation of mitochondrial lysates with ATP (20 mM ATP pH 7.5); pull-down; Atp11His or Atp12His purified on Ni-NTA agarose from mitochondrial lysates pre-incubated with ATP (20 mM ATP pH 7.5 in lysis buffer); SDS-PAGE and immunodetection
# T5 sequence: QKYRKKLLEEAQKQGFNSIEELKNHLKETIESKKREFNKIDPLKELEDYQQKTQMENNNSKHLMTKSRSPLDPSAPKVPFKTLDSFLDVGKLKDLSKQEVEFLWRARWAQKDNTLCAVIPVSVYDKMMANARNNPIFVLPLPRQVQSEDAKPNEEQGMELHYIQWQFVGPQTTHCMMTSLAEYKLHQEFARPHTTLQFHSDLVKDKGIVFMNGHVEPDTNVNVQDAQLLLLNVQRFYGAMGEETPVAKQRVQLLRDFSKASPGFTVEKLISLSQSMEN
# [9] = target: T5, His-tagged Atp11 (Atp11His) (S. cerevisiae); assay: pull-down; Atp11His or Atp12His purified on Ni-NTA agarose from digitonin-lysed mitochondria without added ATP; also in the ssc1-62 background after shift to non-permissive conditions; SDS-PAGE and immunodetection
# [10] = target: T4, His-tagged Atp12 (Atp12His) (S. cerevisiae); assay: condition: only preincubation of mitochondrial lysates with ATP (20 mM ATP pH 7.5); pull-down; Atp11His or Atp12His purified on Ni-NTA agarose from mitochondrial lysates pre-incubated with ATP (20 mM ATP pH 7.5 in lysis buffer); SDS-PAGE and immunodetection
# [11] = target: His-tagged Atp1 (Atp1His) (S. cerevisiae) (UniProt P07251); assay: pull-down; Atp1His purified on Ni-NTA agarose from lysed mitochondria; immunoblotting
Substance,binding [1],binding [2],binding [3],binding [4],binding [5],binding [6],binding [7],binding [8],binding [9],binding [10],binding [11]
Atp1 (subunit α of the ATP synthase) (from UniProt P07251 36-545),binds,binds,binds,no binding,binds,binds,binds,,,,
mitochondrial Hsp70 (mtHsp70) (from UniProt P0CS90 24-654),,,,binds,,,,,,,
Atp2 (subunit β of the ATP synthase) (from UniProt P00830 34-511),binds,binds,binds,no binding,,,binds,no binding,binds,,
"mitochondrial Hsp70 (mtHsp70), wild type (from UniProt P0CS90 24-654)",,,,,,binds,,no binding,binds,no binding,binds
